Results taken from PMC5973619, “Differential incorporation of SUN-domain proteins into LINC complexes is coupled to gene expression” (PLoS ONE, 2018).

Target: the molecule itself
Test: non-reducing SDS-PAGE; HeLa cells lysed in RIPA, SDS-PAGE loading buffer lacking β-mercaptoethanol, no fixative; blot for Sun1 and Sun2

B1: Sun1 (natural protein)
chain: not shown
notes: Sun1, SUN-domain protein of the inner nuclear membrane, endogenous in HeLa cells; also called endogenous Sun1; source: endogenous, HeLa lysate
- stoichiometry N: ~3
